In patent US20200148733A1 (Pieris, published 2020):

Molecular target: T1, lipocalin mutein SEQ ID NO: 5
T1 construct: Human tear lipocalin (Tlc) mutein specific for IL-17A; also called Tlc mutein
Assay: solution competition ELISA: 0.5 nM SEQ ID NO: 5 pre-incubated with varied ligand, free mutein captured on immobilised biotinylated hIL-17A (competitor)
Procedure: In the following detailed experimental protocol, incubation and washing steps were performed as described above in the competition ELISA protocol. A 384-well plate suitable for fluorescence measurements (Greiner FLUOTRAC™ 600, black flat bottom, high-binding) was coated with 20 μl of Neutravidin at a concentration of 5 μg/ml in PBS over night at 4° C. After washing, the Neutravidin-coated wells were blocked with 100 μl blocking buffer (PBS-T/BSA) for 1h at room temperature.

T1 sequence (chain, as listed by the source): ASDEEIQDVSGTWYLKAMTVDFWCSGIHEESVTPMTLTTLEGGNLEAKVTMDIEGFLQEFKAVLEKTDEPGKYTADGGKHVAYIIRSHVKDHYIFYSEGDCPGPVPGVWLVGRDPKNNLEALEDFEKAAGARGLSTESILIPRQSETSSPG

Binder	IC50
human IL-17A (ligand, also called hIL-17A; IL-17 A/A) not shown	0.4 nM
human IL-17 A/F heterodimer (ligand, Heterodimer of IL-17A and IL-17F; also called hIL-17 A/F; hIL-17 AF) chain 1: [sequence of about 150 residues omitted] chain 2: RKIPKVGHTFFQKPESCPPVPGGSMKLDIGIINENQRVSMSRNIESRSTSPWNYTVTWDPNRYPSEVVQAQCRNLGCINAQGKEDISMNSVPIQQETLVVRRKHQGCSVSFQLEKVLVTVGCTCVTPVIHHVQ	0.4 nM
